Target: His6-tagged second bromodomain of PBRM1 (PBRM1-BD2) (human, UniProt Q86U86 174-293)
Experiment: AlphaScreen or HTRF

Chain of UniProt Q86U86 (Q86U86 174-293): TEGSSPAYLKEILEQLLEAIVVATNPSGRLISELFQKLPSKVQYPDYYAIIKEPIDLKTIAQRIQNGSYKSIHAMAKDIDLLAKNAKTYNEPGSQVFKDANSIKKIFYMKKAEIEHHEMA

B1: biotinylated H3K14Ac(1-20) peptide (peptide)
peptide: not shown
modifications: acetyl-lysine at K14; biotin on the added C-terminal lysine; C-terminal amide (CONH2); free N-terminus (NH2)
- binding result: binds
